{
  "source": "PubChem BioAssay AID504832",
  "about": "(National Center for Advancing Translational Sciences (NCATS), 2011)",
  "note": "Where “and” joins values, the source holds several entries; their conditions need not be identical. Equal values may be shown once. In all, about 310,000 compounds went through this assay and about 18,000 (5.8%) were called active. Inconclusive results, whose numbers are uncertain, are shown with a selection of clear calls. Calls come from the whole dose curve; as a rule, active = well fitted inhibition curve with a large enough effect; inconclusive = small, poorly fitted or top-dose-only effect, or another doubt; inactive = no such curve, though single readings can be large or run the other way. Potencies of inconclusive entries are doubtful fits and often do not repeat. % is set by controls: 0 for no effect and ±100 for the full control effect; potency is the fitted concentration of half-maximal effect; tags give direction and shape of the fitted curve.",
  "data": [
    {"experiment": "Primary qHTS for delayed death inhibitors of the malarial parasite plastid, 48 hour incubation", "conditions": "P. falciparum luciferase growth in erythrocytes; series mostly up to 28.7 µM; activity change, negative = inhibition: at the top concentration", "how_it_was_run": "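Cell-based growth assay: transgenic P. falciparum expressing firefly luciferase, cultured in red cells within RPMI 1640 containing 0.5% w/v Albumax, 24 mM bicarbonate and gentamycin. A drop in luciferase activity indicates inhibition.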", "values": [
      {"compound": "O=C(c1cccc(Cl)c1)N1CCN(c2ncnc3c2cnn3-c2ccccc2)CC1", "Potency": "inconclusive: 11.7 µM [inhibitor, partial curve]"},
      {"compound": "COC(=O)C1C(O)=C(C=Nc2ccccc2)C(=O)CC1(C)C", "note": "(stereo unspecified)", "Potency": "inconclusive: 0.465 µM [inhibitor, partial curve, poor fit]"},
      {"compound": "Cc1ccc(COc2coc(CN3CCN(C(=O)c4ccco4)CC3)cc2=O)cc1", "Potency": "active: 11.7 µM"},
      {"compound": "COc1ccc(/C=N/NC(=O)c2cccc(O)c2)cc1Cn1nc(C)c([N+](=O)[O-])c1C", "Potency": "inconclusive: 11.7 µM [inhibitor, single point]"},
      {"compound": "COc1cccc(C(=O)Nc2ccc(S(=O)(=O)Nc3cc(C)nc(C)n3)cc2)c1", "Potency": "inconclusive: 1.47 µM [inhibitor, full curve]"},
      {"compound": "CCCCCC1CCC(C(=O)NNC(=S)NCC)CC1", "note": "(stereo unspecified)", "Potency": "inconclusive: 18.5 µM [inhibitor, single point]"},
      {"compound": "O=C(N/N=C/c1cccc(OC(=O)c2cccc(Br)c2)c1)c1ccncc1", "activity change, negative = inhibition": "inactive: 35.3%"},
      {"compound": "CCOC(=O)C1CCN(C(=O)CCCn2c(=O)c3cccn3c3cccnc32)CC1", "activity change, negative = inhibition": "inactive: -3.08%"},
      {"compound": "CCc1cc2c(=O)c(-c3nc4ccccc4n3C)c(C)oc2c(CN2CCN(CCO)CC2)c1O", "Potency": "inconclusive: 0.0037 µM [inhibitor, full curve, poor fit]"},
      {"compound": "COc1ccc(CCN2C(=O)C(Oc3ccccc3C)C2c2ccc3c(c2)OCO3)cc1", "note": "(stereo unspecified)", "Potency": "inconclusive: 18.5 µM [inhibitor, single point]"},
      {"compound": "CCCCN(CCCC)CCNC(=O)c1cn(CC)c2ccc(S(=O)(=O)N3CCc4ccccc4C3)cc2c1=O", "Potency": "inconclusive: 4.15 µM [inhibitor, single point]"},
      {"compound": "Cc1ccc(OCC(=O)Nc2ccc(Cl)cc2)c(-n2nc3ccccc3n2)c1", "activity change, negative = inhibition": "inactive: 20.6%"},
      {"compound": "COc1ccc(C(=O)Nc2cc(C)on2)cc1[N+](=O)[O-]", "activity change, negative = inhibition": "inactive: -5.99%"},
      {"compound": "CCOC(=O)C1CCN(C(=O)c2cccc(S(=O)(=O)N(CC)c3ccccc3)c2)CC1", "Potency": "inconclusive: 8.28 µM [inhibitor, partial curve]"},
      {"compound": "CC(=O)Oc1cc2c(cc1Cl)C1(CC(c3ccccc3Cl)O2)CC(C)(C)NC(=S)N1", "note": "(stereo unspecified)", "Potency": "inconclusive: 11.7 µM [inhibitor, partial curve]"},
      {"compound": "CN(C)S(=O)(=O)c1cccc(NC(=O)c2cccc(S(=O)(=O)N3CCCCC3)c2)c1", "Potency": "inconclusive: 18.5 µM [inhibitor, single point]"},
      {"compound": "COc1ccc(-c2cc(C(=O)O)c(C)o2)cc1OC", "Potency": "inconclusive: 9.28 µM [inhibitor, single point]"},
      {"compound": "c1ccc(CNc2ncnc3sccc23)cc1", "activity change, negative = inhibition": "inactive: 20.8%"},
      {"compound": "C=CCn1c(C(CCCC)CC(O)COCC(C)C)n[nH]c1=S", "note": "(stereo unspecified)", "Potency": "inconclusive: 18.5 µM [inhibitor, single point]"},
      {"compound": "COc1ccc(NC(=O)CSc2nncc(=O)n2N)cc1OC", "Potency": "inconclusive: 18.5 µM [inhibitor, single point]"},
      {"compound": "Cc1ccc(NC(=S)Nc2cccc3ccccc23)cc1", "Potency": "inconclusive: 18.5 µM [inhibitor, single point]"},
      {"compound": "CC(C)(C)NC(=O)C1Cc2ccccc2CN1C(=O)Nc1ccccc1Cl", "note": "(stereo unspecified)", "activity change, negative = inhibition": "inactive: -27.4%"},
      {"compound": "CCC(Oc1ccccc1)C(=O)Nc1ccc(S(=O)(=O)NCC2CCCO2)cc1", "note": "(stereo unspecified)", "activity change, negative = inhibition": "inactive: -15%"},
      {"compound": "OC(COC(c1ccc(Cl)cc1)c1ccc(Cl)cc1)CN1CCN(c2ccccn2)CC1", "note": "(stereo unspecified)", "Potency": "inconclusive: 16.5 µM [inhibitor, single point]"},
      {"compound": "Cc1cc(C(=O)NNC(=O)c2nn(C)c(=O)c3ccccc23)c(C)o1", "Potency": "inconclusive: 3.29 µM [inhibitor, single point]"},
      {"compound": "COc1ccccc1-c1cc(-c2ccccc2)nc(=O)[nH]1", "Potency": "inconclusive: 13.1 µM [inhibitor, single point]"},
      {"compound": "N#CCc1c(C#N)c(N)nc(N2CCN(S(=O)(=O)c3ccccc3)CC2)c1C#N", "Potency": "inconclusive: 7.38 µM [inhibitor, partial curve, poor fit]"},
      {"compound": "NC(=O)C1CCN(c2nc(-c3ccccc3Br)cs2)CC1", "Potency": "inconclusive: 18.5 µM [inhibitor, single point]"},
      {"compound": "FC(F)(F)c1ccccc1-c1nc(-c2ccncc2)no1", "Potency": "inconclusive: 18.5 µM [inhibitor, single point]"},
      {"compound": "C=C(C)c1cccc(C(C)(C)NC(=O)NCc2cccnc2)c1", "activity change, negative = inhibition": "inactive: 0%"},
      {"compound": "Cc1cccc(NC(=O)CCC(=O)OCC(=O)c2ccc(Oc3ccc([N+](=O)[O-])cc3)cc2)c1", "activity change, negative = inhibition": "inactive: 9.48%"},
      {"compound": "CCOc1ccccc1N1CCN(C(=O)c2cc3cc(OC)ccc3[nH]2)CC1", "Potency": "inconclusive: 4.65 µM [inhibitor, partial curve, poor fit]"},
      {"compound": "C1=C(c2ccccc2)N2CCN=C2S1", "activity change, negative = inhibition": "inactive: 6.61%"},
      {"compound": "COc1cccc(C(=O)C2CCCN(Cc3ccc(F)cc3)C2)c1", "note": "(stereo unspecified)", "Potency": "inconclusive: 11.7 µM [inhibitor, single point]"},
      {"compound": "COc1ccc(-c2cc(-c3cccs3)nc(OC)c2C#N)cc1OC", "Potency": "inconclusive: 18.5 µM [inhibitor, single point]"},
      {"compound": "CCc1ccc(N(CC(=O)Nc2ccccc2C(=O)N2CCCC2)S(C)(=O)=O)cc1", "activity change, negative = inhibition": "inactive: -1.61%"},
      {"compound": "CCCCOc1ccc(Cc2cnc(N)nc2N)cc1", "Potency": "inconclusive: 18.5 µM [inhibitor, single point]"},
      {"compound": "CN(C)CCCN1c2ccccc2Sc2ccc(C(F)(F)F)cc21", "Potency": "inconclusive: 15.1 µM [inhibitor, single point] and inconclusive: 18.5 µM [inhibitor, single point]"},
      {"compound": "CN1CCN(CCOC2Cc3ccccc3Sc3ccc(Cl)cc32)CC1", "note": "(stereo unspecified)", "Potency": "inconclusive: 11.7 µM [inhibitor, single point]"},
      {"compound": "CCN(CC)S(=O)(=O)c1cc(NC(=O)C2CC(=O)N(Cc3ccccc3)C2)ccc1Cl", "note": "(stereo unspecified)", "Potency": "active: 10.4 µM"},
      {"compound": "O=C(NCc1ccco1)c1ccccc1NS(=O)(=O)c1ccc2c(c1)OCCO2", "Potency": "active: 16.5 µM"},
      {"compound": "CCNC(=S)NNC(=O)CCc1nc2cc(Cl)ccc2n(Cc2ccccc2)c1=O", "Potency": "inconclusive: 10.4 µM [inhibitor, single point]"},
      {"compound": "COc1ccc(C2C3=C(NCCN=C3c3ccccc3)C(=O)N2c2ccccc2)c(OC)c1", "note": "(stereo unspecified)", "Potency": "inconclusive: 2.94 µM [inhibitor, partial curve, poor fit]"},
      {"compound": "Cc1cc2[nH]c3c(c[n+](C)c4ccccc34)c2cc1C", "Potency": "active: 0.465 µM"},
      {"compound": "Cc1nn(C)c(Cl)c1CN1CCC(Oc2ccc(C(=O)N3CCCC3)cc2)CC1", "activity change, negative = inhibition": "inactive: -15.3%"},
      {"compound": "Cc1ccc2c(c1)N(C)/C(=C/c1cccc[n+]1CCO)S2", "Potency": "active: 1.85 µM"},
      {"compound": "Cc1ccc(-n2nnnc2Sc2nc([N+](=O)[O-])nn2C)cc1", "Potency": "active: 4.15 µM"},
      {"compound": "Cc1ccc(-n2cc(-c3ccccc3)c3c(NN4CCOCC4)ncnc32)cc1", "activity change, negative = inhibition": "inactive: -25.7%"},
      {"compound": "CCOc1cc(C(=O)Nc2ccc(C)cc2C)ccc1OCC(=O)N1CCCCC1", "Potency": "inconclusive: 9.28 µM [inhibitor, partial curve]"},
      {"compound": "COc1ccc(-c2csc(NC(=O)CSc3ccc(Br)cc3)n2)c(OC)c1", "Potency": "inconclusive: 18.5 µM [inhibitor, single point]"},
      {"compound": "CC1=C(C)C(=O)C(N2CCOCC2)=CC1=O", "Potency": "inconclusive: 18.5 µM [inhibitor, single point]"},
      {"compound": "CCOC(=O)C1C(c2ccc(OC)cc2)N(C)OC1(O)C(F)(F)F", "note": "(stereo unspecified)", "Potency": "inconclusive: 13.1 µM [inhibitor, single point]"},
      {"compound": "Cc1ccc(-c2csc3ncnc(NCCN4CCOCC4)c23)cc1", "Potency": "active: 13.1 µM"},
      {"compound": "COc1cc(O)c(C(CCN2CCCC2)c2ccc3c(c2)OCO3)c(OC)c1", "note": "(stereo unspecified)", "Potency": "active: 2.94 µM"},
      {"compound": "Cc1cccc(C)c1NC(=S)NC(=O)c1ccccc1F", "Potency": "inconclusive: 9.28 µM [inhibitor, partial curve, poor fit]"},
      {"compound": "O=C(CN1CCCCC1)NC(=O)NC1CCCC1", "activity change, negative = inhibition": "inactive: 56.4%"},
      {"compound": "CC1Cn2c(nc3c2c(=O)[nH]c(=O)n3C)O1", "note": "(stereo unspecified)", "activity change, negative = inhibition": "inactive: -0.887%"},
      {"compound": "CC(=O)Nc1ccc(C2Nc3cc(C)c(C)cc3NC3=C2C(=O)CC(C)(C)C3)cc1", "note": "(stereo unspecified)", "activity change, negative = inhibition": "inactive: 5.95%"},
      {"compound": "CC1CN(S(=O)(=O)c2cccc(C(=O)N(CCc3ccccc3)Cc3ccccc3)c2)CC(C)O1", "note": "(stereo unspecified)", "Potency": "active: 2.94 µM"},
      {"compound": "CCC(=NCCc1ccccc1)c1c(O)n(C)c(=O)n(C)c1=O", "activity change, negative = inhibition": "inactive: 4.76%"},
      {"compound": "COc1cccc(C(=O)Nc2cccc(C(=O)N3CCOCC3)c2)c1", "activity change, negative = inhibition": "inactive: 20%"},
      {"compound": "Cc1nc(-c2cccc(NC(=O)c3ccco3)c2)cs1", "Potency": "inconclusive: 7.38 µM [inhibitor, partial curve]"},
      {"compound": "Cc1ccc(NC(=O)C(C)OC(=O)c2ccc(Cl)nc2)cc1S(=O)(=O)N1CCOCC1", "note": "(stereo unspecified)", "Potency": "inconclusive: 18.5 µM [inhibitor, single point]"},
      {"compound": "O=C(Nc1cnn(Cc2c(Cl)cccc2Cl)c1)c1ccc([N+](=O)[O-])cc1", "Potency": "inconclusive: 13.1 µM [inhibitor, single point]"},
      {"compound": "OCC1(Cc2ccc(Cl)cc2)CCN(CCCc2ccccc2)CC1", "Potency": "inconclusive: 13.1 µM [inhibitor, single point]"},
      {"compound": "COc1ccc(CCN=Cc2ccccc2O)cc1OC", "Potency": "inconclusive: 1.04 µM [inhibitor, partial curve, poor fit]"},
      {"compound": "O=C(O)CN1C(=O)C2C3CC(C2C1=O)C1C(c2ccc(F)cc2)c2sc(=O)[nH]c2SC31", "note": "(stereo unspecified)", "activity change, negative = inhibition": "inactive: 0.877%"},
      {"compound": "O=C(CCc1nnc(Cc2c[nH]c3ccccc23)o1)NC(C1CC1)C1CC1", "Potency": "inconclusive: 13.1 µM [inhibitor, partial curve]"},
      {"compound": "COc1ccccc1N1CCN(C(=O)c2ccccc2Oc2ccccc2)CC1", "Potency": "active: 13.1 µM"},
      {"compound": "CCN(Cc1nc(-c2ccc(OC)cc2)no1)C(=O)c1ccoc1C", "activity change, negative = inhibition": "inactive: 3.19%"},
      {"compound": "O=C(NC1CCOC1)c1ccc(OC2CCN(CCc3ccccc3)CC2)cc1", "note": "(stereo unspecified)", "activity change, negative = inhibition": "inactive: -6.22%"}
    ]}
  ]
}
